Source: PubChem BioAssay AID588453 (National Center for Advancing Translational Sciences (NCATS), 2011)
About 4,000 (1%) of roughly 390,000 compounds were called active. Inconclusive results, whose numbers are uncertain, are shown with a selection of clear calls. Calls follow the shape of the dose curve; as a rule, active = well fitted inhibition curve with a large enough effect; inconclusive = small, poorly fitted or top-dose-only effect; inactive = no such curve, though single readings can be large or run the other way. Potencies beside an inconclusive call are fits to weak or partial responses and may not hold up.

The compounds below were run against Thioredoxin reductase 1, cytoplasmic (Rattus norvegicus) (UniProt O89049) (assay: qHTS Assay for Inhibitors of Mammalian Selenoprotein Thioredoxin Reductase 1 (TrxR1): qHTS). Conditions: recombinant rTrxR1, NADPH fluorescence consumption, selenite substrate; series mostly up to 114 µM; activity change, negative = inhibition: at the top concentration.
Procedure, shortened: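 Rat TrxR1 (90 nM in the dispensed reagent) was pre-reduced with 400 uM NADPH for 5 min at room temperature, then incubated with compound for 15 min. After 400 uM selenite was added, NADPH fluorescence (Ex 340/Em 450 nm) was followed for 8 min.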
% is scaled to controls: 0 for no effect and ±100 for the full control effect; potency is read from the fitted curve at half-maximal effect; tags tell the direction and shape of the fitted curve.
Also: nearly all actives have a fitted effect of over 65% in size.

Chain of UniProt O89049 (O89049 whole entry, looked up): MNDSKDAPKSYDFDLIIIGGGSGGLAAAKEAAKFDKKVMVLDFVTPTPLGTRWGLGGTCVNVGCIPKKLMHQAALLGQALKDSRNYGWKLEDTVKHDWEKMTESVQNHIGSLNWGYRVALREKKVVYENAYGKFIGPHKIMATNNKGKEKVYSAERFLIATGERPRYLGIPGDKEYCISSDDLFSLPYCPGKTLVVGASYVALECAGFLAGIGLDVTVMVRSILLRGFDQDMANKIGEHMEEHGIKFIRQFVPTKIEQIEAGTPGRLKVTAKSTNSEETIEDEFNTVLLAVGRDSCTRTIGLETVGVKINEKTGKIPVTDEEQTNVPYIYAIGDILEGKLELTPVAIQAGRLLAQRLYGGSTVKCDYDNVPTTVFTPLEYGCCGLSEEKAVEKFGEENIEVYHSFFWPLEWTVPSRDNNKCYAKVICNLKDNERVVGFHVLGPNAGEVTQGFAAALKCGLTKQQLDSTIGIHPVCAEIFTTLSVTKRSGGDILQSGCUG

SMILES	activity change, negative = inhibition	Potency
COCCn1c(=N)c(C(=O)NC(C)c2ccccc2)cc2c(=O)n3cc(C)ccc3nc21 (stereo unspecified)	inactive: 31%	–
c1ccc(C(c2nnnn2C2CCCC2)N2CCCCCC2)nc1 (stereo unspecified)	–	inconclusive: 50.1 µM [inhibitor, partial curve, poor fit]
CN(C)CCNC(=O)c1coc(=O)c(Br)c1	inactive: 7.06% [at 57.1 µM]	–
COc1ccc(C(=O)/C=C/c2ccc(OC)c(O)c2)c(F)c1	inactive: -35.7%	–
CC[C@]1(O)C[C@H]2CN(CCc3c([nH]c4ccccc34)[C@@](C(=O)OC)(c3cc4c(cc3OC)N(C=O)[C@H]3[C@@](O)(C(=O)OC)[C@H](OC(C)=O)[C@]5(CC)C=CCN6CC[C@]43[C@@H]65)C2)C1	–	inconclusive: 79.4 µM [inhibitor, single point]
CCN(CC)c1nc(N)c2c(N)n(-c3ccccc3C)c(=S)c(C#N)c2c1C#N	–	inconclusive: 20 µM [inhibitor, full curve]
COCCN(CC(=O)Nc1cccc(C)c1C)C(=O)C1(c2ccccc2)CC1	inactive: 12.6%	–
COc1ccc(C(=O)NC(=S)Nc2ccc3c4c(cccc24)CC3)cc1OC	–	inconclusive: 1.58 µM [inhibitor, full curve, poor fit]
COc1ccc(CSc2ccc(-c3nc4ccccn4c3NCc3ccccc3)cc2OC)cc1	inactive: 24.8% [at 57.1 µM]	–
CC(=O)n1nc(-c2ccncc2)nc1SCC(=O)Nc1cccc(Cl)c1	–	inconclusive: 15.8 µM [inhibitor, partial curve]
COC(=O)C/C=N/N=C1/NC(=O)/C(=C/C(=O)O)S1	–	inconclusive: 56.2 µM [inhibitor, partial curve, poor fit]
Cc1ccc(Nc2ncccc2C(=O)O)cc1C	inactive: 24.9%	–
CCCOc1ccc(-c2nn(-c3ccccc3)cc2/C=C2\SC(N)=NC2=O)cc1	inactive: 9.37% [at 57.1 µM]	–
O=C(O)c1ccc(N/N=C/c2cc(Br)cs2)cc1	inactive: 0.28% [at 57.1 µM]	–
CNc1oc(-c2ccccc2Cl)nc1P(=O)(c1ccccc1)c1ccccc1	inactive: 8.34% [at 57.1 µM]	–
CCCOc1ccc(C(O)(CCC)CCN2CCCCC2)cc1 (stereo unspecified)	–	inconclusive: 28.2 µM [inhibitor, single point]
Cc1cccc(C)c1OCC(C)N (stereo unspecified)	–	inconclusive: 89.1 µM [inhibitor, partial curve, poor fit]
O=C(NC(N1CCOCC1)C(Cl)(Cl)Cl)c1ccc(Br)cc1 (stereo unspecified)	–	inconclusive: 15.8 µM [inhibitor, partial curve]
S=c1[nH]nc(COc2ccccc2)n1/N=C/c1cccc(Cl)c1Cl	–	inconclusive: 63.1 µM [inhibitor, partial curve, poor fit]
Fc1cccc(/C=N/Nc2nncc3ccccc23)c1	inactive: -1.66%	–
CC(C)CCNC(=S)Nc1ccc2nc3n(c(=O)c2c1)CCCCC3	–	inconclusive: 10 µM [inhibitor, full curve]
Cc1nn(-c2ccc(F)cc2)c(Cl)c1/C=N/NC(=O)c1cccs1	inactive: -11.6%	–
Cc1ccc(NC(=O)COC(=O)Cc2c[nH]c3ccccc23)cc1F	–	inconclusive: 79.4 µM [inhibitor, single point]

SMILES	activity change, negative = inhibition	Potency
O=C(c1ccc(CS(=O)(=O)Cc2ccc(Cl)cc2)o1)N1CCCC1	–	inconclusive: 39.8 µM [inhibitor, single point]
CN1OC2C(=O)N(c3ccccc3)C(=O)C2C1c1ccc(F)cc1 (stereo unspecified)	inactive: 18.9%	–
CCOC(=O)NC1(Nc2ccc(C)cc2)Oc2ccccc2O1	–	inconclusive: 56.2 µM [inhibitor, partial curve, poor fit]
Nc1cccnc1Sc1ccc(Cl)cc1	–	inconclusive: 70.8 µM [inhibitor, partial curve]
CCc1cc(=O)oc2c3c(c(Cl)cc12)OCN(Cc1cccc(OC)c1)C3	–	inconclusive: 39.8 µM [inhibitor, partial curve, poor fit]
Cc1ccc(/C=C2/NC(=O)N(Cc3ccc(Br)cc3)C2=O)o1	–	inconclusive: 39.8 µM [inhibitor, partial curve]
CN1C=C/C(=C\c2cc[n+](C)c3ccccc23)c2ccccc21	inactive: 20.8%	–
CCOC(=O)CSc1ncnc2c1nnn2-c1ccc(F)cc1	inactive: 9.44%	–
CC(=O)/C(N=Nc1ccc(OC(F)(F)F)cc1)=C(\C)O	–	inconclusive: 89.1 µM [inhibitor, partial curve, poor fit]
CCOC(=O)N1CCN(C(=S)NC(C)(C)C)CC1	–	inconclusive: 56.2 µM [inhibitor, single point]
CCN1CCN(CCCNC(=O)c2ccc(/C=C3/Oc4ccccc4N(Cc4cccc(C)c4)C3=O)cc2)CC1	inactive: 26.3%	–
N#C/C(=C\c1ccc(OC(F)F)cc1)C(=O)N1CCCCC1	–	inconclusive: 79.4 µM [inhibitor, partial curve, poor fit]
CC1CCN(C(=S)c2ccc(-c3ccc(Cl)cc3Cl)o2)CC1	–	inconclusive: 79.4 µM [inhibitor, single point]
CN(C)c1oc(-c2ccco2)nc1C#N	–	inconclusive: 70.8 µM [inhibitor, single point]
O=S(=O)(Nc1c(S(=O)(=O)c2ccccc2)c2nc3ccccc3nc2n1C1CCCCC1)c1ccccc1	–	inconclusive: 56.2 µM [inhibitor, partial curve]
COCCn1c(SCC(=O)N2CCCc3ccccc32)nc2cccnc21	–	inconclusive: 56.2 µM [inhibitor, single point]
CC(=O)c1cc(NC(=O)c2ccc(Cl)cc2)c(=O)oc1/C=C/N(C)C	–	inconclusive: 70.8 µM [inhibitor, single point]
c1ccc(CNc2ncnc3c2oc2ccccc23)nc1	inactive: 18.5%	–
COc1cccc(C2c3c(oc4ccccc4c3=O)C(=O)N2CCCN2CCOCC2)c1 (stereo unspecified)	–	inconclusive: 79.4 µM [inhibitor, single point]
COc1ccc(-c2nc(C)c(CCNC(=O)C(=O)Nc3ccccc3OC)s2)cc1	inactive: 20.3% [at 57.1 µM]	–
CCc1ccccc1NC(=O)c1c(NC(=O)c2ccccc2)sc2c1CCCC2	–	active: 89.1 µM
Cc1cc(Br)cc(C)c1NC(=S)NC(=O)CC(C)C	–	inconclusive: 11.2 µM [inhibitor, partial curve, poor fit]
CSc1cccc(NC(=S)N2CCC(N(C)C3CCCCC3C)CC2)c1 (stereo unspecified)	–	inconclusive: 44.7 µM [inhibitor, full curve, poor fit]
